Assay results as given in paper PMC4336329 (PLoS ONE, 2015).
About 2,200 (0.71%) of roughly 310,000 compounds showed an effect of 50% or more. The effect is printed as a negative number. The list shows a part of the results.

Each compound was assayed against human ether-à-go-go-related gene (hERG) potassium channel (human, UniProt Q12809) (assay: primary screen, population patch clamp on CHO cells stably expressing hERG).
Chain of human ether-à-go-go-related gene (hERG) potassium channel (Q12809 whole entry, looked up): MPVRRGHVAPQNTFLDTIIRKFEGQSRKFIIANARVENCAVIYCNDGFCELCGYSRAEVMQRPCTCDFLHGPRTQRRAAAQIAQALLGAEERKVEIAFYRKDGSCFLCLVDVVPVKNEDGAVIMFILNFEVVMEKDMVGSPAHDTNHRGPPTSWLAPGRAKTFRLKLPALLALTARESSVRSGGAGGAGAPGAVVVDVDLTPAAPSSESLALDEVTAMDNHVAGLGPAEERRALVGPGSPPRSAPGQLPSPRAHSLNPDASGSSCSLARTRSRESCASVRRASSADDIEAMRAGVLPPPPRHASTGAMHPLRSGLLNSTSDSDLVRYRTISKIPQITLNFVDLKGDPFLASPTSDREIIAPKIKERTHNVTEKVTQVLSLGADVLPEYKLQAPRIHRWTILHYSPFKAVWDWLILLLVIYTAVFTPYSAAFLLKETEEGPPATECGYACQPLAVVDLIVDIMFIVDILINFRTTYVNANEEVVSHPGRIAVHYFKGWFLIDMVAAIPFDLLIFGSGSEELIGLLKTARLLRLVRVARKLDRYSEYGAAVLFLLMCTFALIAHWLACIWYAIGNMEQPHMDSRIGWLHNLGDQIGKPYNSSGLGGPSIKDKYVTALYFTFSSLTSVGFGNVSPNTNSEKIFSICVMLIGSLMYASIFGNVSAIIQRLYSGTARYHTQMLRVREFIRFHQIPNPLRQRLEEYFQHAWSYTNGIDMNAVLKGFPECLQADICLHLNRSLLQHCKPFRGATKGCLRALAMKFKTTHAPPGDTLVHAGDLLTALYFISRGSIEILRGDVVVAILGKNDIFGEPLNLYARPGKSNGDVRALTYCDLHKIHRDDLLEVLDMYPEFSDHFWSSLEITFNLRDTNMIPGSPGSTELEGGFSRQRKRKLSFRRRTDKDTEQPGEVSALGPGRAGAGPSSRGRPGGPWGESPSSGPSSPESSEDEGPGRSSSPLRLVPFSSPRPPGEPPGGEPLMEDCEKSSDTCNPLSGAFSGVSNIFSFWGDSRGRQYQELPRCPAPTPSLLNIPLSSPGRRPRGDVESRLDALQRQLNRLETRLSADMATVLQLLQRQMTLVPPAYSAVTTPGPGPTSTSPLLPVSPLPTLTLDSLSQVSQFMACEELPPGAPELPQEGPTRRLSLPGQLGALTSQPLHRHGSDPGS

Row | Compound | hERG current change (%, negative = inhibition) at 1uM [%]
1 | Nc1nnc(CSc2ccc(Cl)cc2)s1 | 14.7
2 | Cc1cc(C)c2c(c1)C1C=CCC1C(c1ccc(S(=O)(=O)N3CCOCC3)cc1)N2 (stereo not shown) | 13.8
3 | CC(C)(C)NC(=O)CN(C(=O)Cn1nnc(-c2ccc(Cl)cc2)n1)C1CCN(Cc2ccccc2)CC1 | 10.6
4 | Cc1ccc(Cn2c(SCC(=O)N/N=C/c3ccccc3OCC(=O)O)nc3ccccc32)cc1 | 7.61
5 | O=[N+]([O-])c1cccc(-c2cn(-c3ccccc3)c(=S)[nH]2)c1 | 11.4
6 | CC1=NN(C(N)=S)C(=O)C1N=Nc1c(Cl)cc([N+](=O)[O-])cc1Cl (stereo not shown) | 10.5
7 | COc1ccc2nc(Sc3c([N+](=O)[O-])nc(C)n3Cc3ccccc3)[nH]c2c1 | 5.85
8 | O=C(NC12CC3CC(CC(C3)C1)C2)c1cccc([N+](=O)[O-])c1 | 11.1
9 | Cc1ccc(NC(=O)Cn2c(=O)c3cccn3c3ccccc32)cc1 | 10.8
10 | Cc1ccccc1SCC(=O)OCC(=O)Nc1ccc(N(C)C)cc1 | 7.98
11 | Nc1nnc(SCC(=O)NNC(=O)c2ccc([N+](=O)[O-])cc2)s1 | 16.6
12 | Cc1ccc(C)c(-c2nn(-c3cc(N4CCN(CCO)CC4)ccc3[N+](=O)[O-])c(=O)c3ccccc23)c1 | -0.228
13 | Cc1c(C(=O)NNC(=O)c2csc(N3CCOCC3)n2)cccc1[N+](=O)[O-] | 9.03
14 | Cc1cccc(C2c3[nH]c4ccccc4c3CCN2C(=O)Cc2nc(-c3ccccc3)n[nH]2)n1 (stereo not shown) | 8.33
15 | O=C(CN1C(=O)C(=O)N(Cc2ccco2)C1=O)c1c[nH]c2ccccc12 | 13.6
16 | CCCCP(=O)(CCCC)Cc1ccccc1 | 12.9
17 | COCCC(=O)N1CCC(Oc2ccc(C(=O)N3C[C@@H]4CCC[C@H]3C4)cc2)CC1 | 5.49
18 | CC(Cc1ccccc1)NC(=O)/C=C/c1ccc(Cl)cc1 (stereo not shown) | 8.25
19 | CC(/C=C/c1ccccc1)=N/NC(=O)CNC(=O)c1ccc2c(c1)OCO2 | 3.05
20 | O=C(c1cccnc1)n1nc(NCc2ccccc2)nc1NCc1ccccc1 | -0.112
21 | NC(=O)CCCCC(=O)OCCCc1cccs1 | 9.25
22 | COc1ccc(Cc2nc3ccc(C(=O)NCCn4cccn4)cc3o2)cc1 | 0.926
23 | COc1ccc(CNC(=O)CN(c2ccccc2)S(=O)(=O)c2ccccc2[N+](=O)[O-])cc1 | 2.89
24 | S=C(Nc1ccc(Br)cc1Cl)Nn1cnnc1 | 20.3
25 | Cc1ccn2c(NC3CCCCC3)c(-c3cccc(-c4cccc(Cl)c4)c3)nc2c1.O=C(O)C(F)(F)F | 11.3
26 | Cc1cc(C)c(C)c(S(=O)(=O)NCC(=O)NCC2CCCCC2)c1C | 18.4
27 | CC(NCCN(C)C)C(=O)C12CC3CC(CC(C3)C1)C2.Cl (stereo not shown) | 12.1
28 | O=C(O)CC(NC(=O)CCc1ccccc1)c1ccc(Cl)cc1 (stereo not shown) | 11.7

Row | Compound | hERG current change (%, negative = inhibition) at 1uM [%]
29 | Cn1c(=O)c2c(nc(CN3CCN(CCO)CC3)n2CCc2ccccc2)n(C)c1=O | 14.3
30 | O=S(=O)(c1ccccc1)C1(S(=O)(=O)c2ccccc2)CCCC1 | 8.34
31 | COCCN1C=C(C(=O)OC)C(c2ccc(Cl)cc2)C(C(=O)OC)=C1 | 6.88
32 | CCOc1ccc(OCC)c(NC(=O)CCCN2C(=O)c3cccnc3C2=O)c1 | 10.2
33 | O=c1[nH]c(CN2CCCC2)nc2sc3c(c12)CCC3 | 4.54
34 | CCn1cnc2cc(NCc3ccccc3Cl)ccc21 | -10.3
35 | CCCCOC(=O)C(NC(=O)c1ccccc1)=C(C)C | 7.06
36 | Cc1cccc(N(CC(N)=O)S(C)(=O)=O)c1C | 19.6
37 | Cc1ccc(C)c(OCC(=O)Nc2ccc(S(=O)(=O)Nc3ncccn3)cc2)c1 | 3.31
38 | COc1cc(OC)cc(C(=O)N[C@H](C(=O)Nc2ccc(S(=O)(=O)N(C)C)cc2)C(C)C)c1 | 13.4
39 | CCCNC(=O)CCc1nnc2ccc(N3CCC(C)CC3)nn12 | 12.3
40 | Br.COc1ccc(-c2csc(Cc3nnc4n3CCCCC4)n2)cc1OC | -6.22
41 | CCOC(=O)Cc1csc(NC(=O)c2c(-c3c(F)cccc3Cl)noc2C)n1 | 0.134
42 | CCOc1ccc(C(=O)Nc2ccc(Cc3ccncc3)cc2)cc1Br | 22.1
43 | CCOC(=O)C1(CC2CCCCO2)CCN(Cc2cc3ccccc3[nH]2)CC1 (stereo not shown) | 2.61
44 | COCC(=O)NNS(=O)(=O)c1ccccc1[N+](=O)[O-] | 11.5
45 | Cc1cc(C)c(S(=O)(=O)CCC(C)C)c(=O)[nH]1 | 11.1
46 | N#Cc1c(SCC(N)=O)nc(-c2ccccc2)c2c1CCCC2 | 12.8
47 | O=C(COC(=O)c1cc(Cl)ccc1[N+](=O)[O-])NCc1ccc(Cl)cc1Cl | 2
48 | CC(C)CC1=NN(C(=O)c2ccco2)C(O)(C(F)(F)F)C1 (stereo not shown) | 20.4
49 | COc1cccc(C2NC(=O)CCC2[N+](=O)[O-])c1 (stereo not shown) | 4.31
50 | CCCCCN(C(=O)COC(=O)c1ccc(Br)o1)c1c(N)n(CCCC)c(=O)[nH]c1=O | -0.908
51 | Cc1ccc(N2C(=O)Nc3ccc(Br)cc3C2(O)C(=O)NCCN(C)C)cc1C (stereo not shown) | 11.4
52 | COc1ccc(CC(=O)Nc2c(C(=O)N3CCN(c4ccccc4)CC3)oc3ccccc23)cc1OC | -8.82
53 | Cc1nn(C(=O)c2nn(C)cc2[N+](=O)[O-])c(C)c1Br | 10
54 | O=C1CC(N2CCN(c3cccc(C(F)(F)F)c3)CC2)C(=O)N1c1ccc(F)cc1 (stereo not shown) | -7.18
55 | CC(=O)n1cc([C@H]2C=C(C(N)=O)O[C@@H](OCc3ccc(CO)cc3)C2)c2ccccc21 | 1.24
